Assay results published in PMC4336329 (PLoS ONE, 2015).
Hit rate of the full screen: of about 310,000 compounds, about 14,000 (4.5%) showed an effect of 50% or more. The effect is printed as a negative number. The list shows a part of the results.

target: human ether-à-go-go-related gene (hERG) potassium channel (human, UniProt Q12809); test: primary screen, population patch clamp on CHO cells stably expressing hERG
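Further: peak tail current of the secondary pulse compared with the same well before compound.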

Sequence of human ether-à-go-go-related gene (hERG) potassium channel (Q12809 whole entry, looked up): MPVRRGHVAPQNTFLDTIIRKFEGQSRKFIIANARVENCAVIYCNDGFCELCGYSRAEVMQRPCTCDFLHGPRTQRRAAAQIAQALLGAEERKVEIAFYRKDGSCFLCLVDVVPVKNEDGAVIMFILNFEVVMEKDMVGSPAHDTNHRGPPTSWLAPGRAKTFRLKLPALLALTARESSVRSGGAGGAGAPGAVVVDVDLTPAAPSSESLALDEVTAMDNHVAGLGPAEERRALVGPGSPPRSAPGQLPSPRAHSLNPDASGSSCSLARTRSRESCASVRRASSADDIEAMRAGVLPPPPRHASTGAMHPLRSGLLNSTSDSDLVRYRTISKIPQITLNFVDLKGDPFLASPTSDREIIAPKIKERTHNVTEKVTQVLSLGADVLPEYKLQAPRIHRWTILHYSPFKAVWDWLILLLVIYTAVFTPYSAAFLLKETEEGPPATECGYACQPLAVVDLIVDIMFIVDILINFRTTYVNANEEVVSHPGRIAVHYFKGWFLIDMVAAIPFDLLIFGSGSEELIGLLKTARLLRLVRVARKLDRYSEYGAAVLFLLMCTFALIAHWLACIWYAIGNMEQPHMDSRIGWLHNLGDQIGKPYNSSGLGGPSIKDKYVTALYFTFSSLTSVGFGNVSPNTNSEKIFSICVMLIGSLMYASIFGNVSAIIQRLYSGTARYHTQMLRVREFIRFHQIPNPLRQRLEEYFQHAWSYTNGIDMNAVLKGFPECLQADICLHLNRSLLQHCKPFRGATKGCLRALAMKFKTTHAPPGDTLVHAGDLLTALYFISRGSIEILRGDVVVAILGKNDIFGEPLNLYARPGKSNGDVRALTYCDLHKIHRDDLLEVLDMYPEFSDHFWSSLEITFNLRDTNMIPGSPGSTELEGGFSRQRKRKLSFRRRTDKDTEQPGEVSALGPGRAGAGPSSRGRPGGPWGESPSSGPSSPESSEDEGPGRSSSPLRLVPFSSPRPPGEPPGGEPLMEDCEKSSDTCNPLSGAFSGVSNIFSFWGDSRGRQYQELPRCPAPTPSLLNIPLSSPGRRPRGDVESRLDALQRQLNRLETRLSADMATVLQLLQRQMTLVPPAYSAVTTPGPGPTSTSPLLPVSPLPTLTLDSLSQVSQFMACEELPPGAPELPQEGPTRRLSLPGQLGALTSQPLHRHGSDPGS

SMILES	hERG current change (%, negative = inhibition) at 10uM [%]
Cc1cc(C)cc(-n2nnc(C(=O)NCc3ccccc3)c2N)c1	7
S=c1[nH]nc(COc2ccccc2)n1/N=C/c1ccncc1	7.06
COc1ccccc1NS(=O)(=O)c1cccc(C(=O)NC2CCN(Cc3ccccc3)CC2)c1	-56
CC1=C(C)CC(C(=O)NCc2c(F)cccc2Cl)C(C(=O)O)C1 (stereo not shown)	12.9
CCS(=O)(=O)c1ccc(O)c(NC(=O)/C=C/c2ccccc2)c1	-1.18
Cc1cc(C)cc(OCC(O)CN2CC(C)OC(C)C2)c1.Cl (stereo not shown)	9.89
CC1(C)Cc2c(sc(NC(=O)C(=O)N3CCN(CCO)CC3)c2C(N)=O)CO1	13.4
COC(=O)c1cc(NC(=O)CSc2nnc(N)s2)ccc1Cl	6.01
CCOC(=O)C1=C(C)N(CCCC(=O)O)C(=O)NC1c1ccc(Br)cc1 (stereo not shown)	-1.29
CC(c1ccc(Br)cc1)N1CC23C=CC(O2)C(C(=O)O)C3C1=O (stereo not shown)	-5.38
COC(=O)c1cc(S(=O)(=O)Nc2cc(S(=O)(=O)N(C)C)ccc2C)oc1C	-12.3
Cc1ccccc1N1C(=O)CC(Nc2ccc3c(c2)OCO3)C1=O (stereo not shown)	2.21
CCOc1c(C(=O)CC)cc2c(C)cc(=O)oc2c1C	-18.9
Cc1ccc(C(=O)NNC(=S)NC(=O)COc2ccccc2)cc1	18.3
CC1CCN(C(=O)C2CCC(=O)N(Cc3ccc(Cl)cc3)C2)CC1 (stereo not shown)	-4.43
Cc1noc(C)c1COC(=O)c1cccnc1SCC(=O)Nc1ccc2c(c1)OCO2	-1.35
CC(C)C[C@H](NC(=O)[C@H](Cc1ccccc1)n1c(=O)[nH]c2ccccc2c1=O)C(=O)N1CCC[C@@H]1C(=O)O	9.27
COc1ccccc1OCCC(=O)OCC(=O)Nc1cccc(Br)c1	-5.06
OC1/C(=C/c2ccc(C(F)(F)F)cc2)N2CCC1CC2 (stereo not shown)	28
CC(C)CC1NC(=O)N(CC(=O)Nc2cc(F)ccc2F)C1=O (stereo not shown)	-5.68
Cc1ccc(C)c(NC(=O)N2CCc3ccccc3C2)c1	0.28
CCS(=O)(=O)n1nc(-c2ccc(C)cc2)nc1N	-0.405
Cc1nn(-c2ccccn2)c(N)c1N=O	-23.4
O=C1C2CCN(CC2)C12CC2c1ccc(C(F)(F)F)cc1 (stereo not shown)	16.8
Cl.N=c1sccn1CC(=O)NCCc1ccc(Cl)cc1	-26.3
